24 compounds from the supplement of paper PMC10037445 can be followed below.

Over roughly 2,900 compounds, “NF-kB SEAP reporter activity, fold change vs agonist alone” has its median near 0.99; the highest 2% begin near 2.6. The list shows a part of the results.

Experiment [1] relates to RAW-Dual. In words: NF-kB SEAP reporter activity, fold change vs agonist alone; higher = enhanced NF-kB activity. The gist of the method:
(§1)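 After 50 nL of library stock was delivered by pin tool to RAW-Dual macrophages (50,000 cells/well, DMEM, 384-well plates), a PRR agonist was added 1 h later and the plates were kept at 37 °C, 5% CO2. Twenty hours later, IRF was read from supernatant by QuantiLuc luminescence and NF-κB by QuantiBlue absorbance at 620 nm. Reporter activity is stated as fold change over agonist-alone wells. Wells with IncuCyte confluency under 70% of agonist controls in both mask sets were counted as cytotoxic.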

The test system of experiment [2] is RAW-Dual. Put plainly: NF-kB SEAP reporter activity, fold change vs agonist alone; cytotoxicity flag (confluency mask): not cytotoxic; higher = enhanced NF-kB activity. The gist of the method:
as §1

The subject of experiment [3] is RAW-Dual. In words: NF-kB SEAP reporter activity, fold change vs agonist alone; cytotoxicity flag (confluency mask): cytotoxic (confluency <70% of control); higher = enhanced NF-kB activity. An outline of the steps:
as §1

Where [4] appears, read: agonist: ODN 1826 (TLR9) 0.5 ug/mL.
Where [5] appears, read: agonist: Pam2CSK4 (TLR2/6) 0.1 ug/mL.
The mark [6] stands for this setting: agonist: Pam3CSK4 (TLR2/1) 0.1 ug/mL.
Where [7] appears, read: library stock concentration (final ~1000-fold dilution): 10 mM, cytotoxicity flag (confluency mask): not cytotoxic, agonist: Imiquimod (TLR7) […].
[8] abbreviates: library stock concentration (final ~1000-fold dilution): 10 mM, cytotoxicity flag (confluency mask): not cytotoxic, agonist: MPLA (TLR4) […].
Setting [9] is: library stock concentration (final ~1000-fold dilution): 10 mM, cytotoxicity flag (confluency mask): cytotoxic (confluency <70% of control), agonist: Imiquimod (TLR7) […].
Setting [10] is: library stock concentration (final ~1000-fold dilution): 10 mM, cytotoxicity flag (confluency mask): cytotoxic (confluency <70% of control), agonist: MPLA (TLR4) […].

On to `CN1C2CCCC1CC(NC(=O)c1nn(C)c3ccccc13)C2.Cl` (configuration not stated), for which the “NF-kB SEAP reporter activity” value was 0.874 in the experiment with RAW-Dual [1] (library stock concentration (final ~1000-fold dilution): 10 mM water, cytotoxicity flag (confluency mask): not cytotoxic, agonist: Imiquimod (TLR7) […]) and 1 in the experiment with RAW-Dual [1] (library stock concentration (final ~1000-fold dilution): 10 mM water, cytotoxicity flag (confluency mask): not cytotoxic, agonist: MPLA (TLR4) […]).
With `CN1C2CCCC1CC(NC(=O)c1nn(C)c3ccccc13)C2.Cl` (configuration not stated) (library stock concentration (final ~1000-fold dilution): 10 mM water), the “NF-kB SEAP reporter activity” value in the experiment on RAW-Dual [2] (agonist: LPS (TLR4) 0.1 ug/mL) came to 1.2; in the experiment with RAW-Dual [2] (setting [4]) it was 1.06; in the experiment with RAW-Dual [2] (setting [5]) it was 1.04; with RAW-Dual [2] (setting [6]), 1.11.
In the case of `NC(=O)Nc1cc(-c2cccc(F)c2)sc1C(=O)NC1CCCNC1` (configuration not stated) (library stock concentration (final ~1000-fold dilution): 10 mM), the “NF-kB SEAP reporter activity” value amounted to 0.239 in the experiment on RAW-Dual [2] (agonist: LPS (TLR4) 0.1 ug/mL), 0.255 with RAW-Dual [2] (setting [4]), 0.0825 in the experiment on RAW-Dual [2] (setting [5]) and 0.16 in the experiment with RAW-Dual [2] (setting [6]).
Regarding `NC(=O)Nc1cc(-c2cccc(F)c2)sc1C(=O)NC1CCCNC1` (configuration not stated), the “NF-kB SEAP reporter activity” value was determined as 0.256 with RAW-Dual [1] (setting [7]) and 0.401 in the experiment with RAW-Dual [1] (setting [8]).
Consider `Cl.OC(CNCC(O)C1CCc2cc(F)ccc2O1)C1CCc2cc(F)ccc2O1` (configuration not stated), for which the “NF-kB SEAP reporter activity” value is 1.62 in the experiment with RAW-Dual [1] (setting [9]) and 1.12 with RAW-Dual [1] (setting [10]).
Regarding `Cl.OC(CNCC(O)C1CCc2cc(F)ccc2O1)C1CCc2cc(F)ccc2O1` (configuration not stated) (library stock concentration (final ~1000-fold dilution): 10 mM), the “NF-kB SEAP reporter activity” value was 0.949 in the experiment on RAW-Dual [3] (agonist: LPS (TLR4) 0.1 ug/mL), 0.412 with RAW-Dual [3] (setting [4]), 0.203 in the experiment with RAW-Dual [3] (setting [5]) and 0.408 in the experiment with RAW-Dual [3] (setting [6]).
With `Cc1c(NC(=O)OCC2COCCN2)cn2ncnc(Nc3ccc4c(cnn4Cc4cccc(F)c4)c3)c12` (configuration not stated) (library stock concentration (final ~1000-fold dilution): 10 mM), the “NF-kB SEAP reporter activity” value with RAW-Dual [2] (agonist: LPS (TLR4) 0.1 ug/mL) turned out to be 1.49; in the experiment on RAW-Dual [2] (setting [4]) it was 0.194; in the experiment on RAW-Dual [2] (setting [5]), 1; in the experiment with RAW-Dual [2] (setting [6]), 0.839.
Turning to `Cc1c(NC(=O)OCC2COCCN2)cn2ncnc(Nc3ccc4c(cnn4Cc4cccc(F)c4)c3)c12` (configuration not stated), the “NF-kB SEAP reporter activity” value in the experiment on RAW-Dual [1] (setting [7]) stood at 1.99; with RAW-Dual [1] (setting [8]) it was 1.
Take `CC(C)NCC(O)COc1cccc2ccccc12.Cl` (configuration not stated): the “NF-kB SEAP reporter activity” value in the experiment on RAW-Dual [1] (setting [7]) is 1.07; in the experiment on RAW-Dual [1] (setting [8]), 1.04.
On to `CC(C)NCC(O)COc1cccc2ccccc12.Cl` (configuration not stated) (library stock concentration (final ~1000-fold dilution): 10 mM), for which the “NF-kB SEAP reporter activity” value turned out to be 0.913 with RAW-Dual [2] (agonist: LPS (TLR4) 0.1 ug/mL), 0.94 in the experiment with RAW-Dual [2] (setting [4]), 0.822 with RAW-Dual [2] (setting [5]) and 1.08 in the experiment with RAW-Dual [2] (setting [6]).
In the same order, the values of `O=C(CCc1ccc(O)cc1)c1c(O)cc(O)cc1OC1OC(CO)C(O)C(O)C1O` (configuration not stated) (library stock concentration (final ~1000-fold dilution): 10 mM) are 0.997, 0.987, 1.22 and 1.21.
As to `O=C(CCc1ccc(O)cc1)c1c(O)cc(O)cc1OC1OC(CO)C(O)C(O)C1O` (configuration not stated), the “NF-kB SEAP reporter activity” value in the experiment on RAW-Dual [1] (setting [7]) was determined as 0.927; in the experiment on RAW-Dual [1] (setting [8]), 1.08.
Take `CCCCc1oc2ccc(NS(C)(=O)=O)cc2c1C(=O)c1ccc(OCCCN(CCCC)CCCC)cc1.Cl` (library stock concentration (final ~1000-fold dilution): 10 mM): the “NF-kB SEAP reporter activity” value in the experiment on RAW-Dual [2] (agonist: LPS (TLR4) 0.1 ug/mL) came to 0.27; in the experiment on RAW-Dual [2] (setting [4]), 0.964; in the experiment with RAW-Dual [2] (setting [5]), 0.216; in the experiment on RAW-Dual [2] (setting [6]), 0.873.
In the case of `CCCCc1oc2ccc(NS(C)(=O)=O)cc2c1C(=O)c1ccc(OCCCN(CCCC)CCCC)cc1.Cl`, the figures for the “NF-kB SEAP reporter activity” value in the experiment on RAW-Dual [1] (setting [7]) and in the experiment on RAW-Dual [1] (setting [8]) were 0.984 and 0.902, respectively.
`CNC(=O)c1cc(Oc2ccc(NC(=O)Nc3ccc(Cl)c(C(F)(F)F)c3)c(F)c2)ccn1` (library stock concentration (final ~1000-fold dilution): 10 mM): the “NF-kB SEAP reporter activity” value was 0.614 in the experiment on RAW-Dual [2] (agonist: LPS (TLR4) 0.1 ug/mL), 0.463 in the experiment on RAW-Dual [2] (setting [4]), 0.148 with RAW-Dual [2] (setting [5]) and 0.325 in the experiment on RAW-Dual [2] (setting [6]).
On to `CNC(=O)c1cc(Oc2ccc(NC(=O)Nc3ccc(Cl)c(C(F)(F)F)c3)c(F)c2)ccn1`, for which the results for the “NF-kB SEAP reporter activity” value with RAW-Dual [1] (setting [7]) and in the experiment on RAW-Dual [1] (setting [8]) were 1.15 and 1.22, respectively.
`O=C(CCCN1CCN(c2ccccn2)CC1)c1ccc(F)cc1`: the results for the “NF-kB SEAP reporter activity” value in the experiment on RAW-Dual [1] (setting [7]) and in the experiment on RAW-Dual [1] (setting [8]) were 0.893 and 0.982, respectively.
Consider `O=C(CCCN1CCN(c2ccccn2)CC1)c1ccc(F)cc1` (library stock concentration (final ~1000-fold dilution): 10 mM), for which the “NF-kB SEAP reporter activity” value was found to be 1.05 with RAW-Dual [2] (agonist: LPS (TLR4) 0.1 ug/mL), 0.704 in the experiment on RAW-Dual [2] (setting [4]), 0.91 with RAW-Dual [2] (setting [5]) and 1.19 with RAW-Dual [2] (setting [6]).
`CCOC(=O)C(CCc1ccccc1)NC(C)C(=O)N(CC(=O)O)C1Cc2ccccc2C1.Cl` (configuration not stated) (library stock concentration (final ~1000-fold dilution): 10 mM): the “NF-kB SEAP reporter activity” value with RAW-Dual [2] (agonist: LPS (TLR4) 0.1 ug/mL) turned out to be 0.873; in the experiment with RAW-Dual [2] (setting [4]), 1.05; in the experiment with RAW-Dual [2] (setting [5]), 1.03; with RAW-Dual [2] (setting [6]), 0.941.
`CCOC(=O)C(CCc1ccccc1)NC(C)C(=O)N(CC(=O)O)C1Cc2ccccc2C1.Cl` (configuration not stated): the “NF-kB SEAP reporter activity” value turned out to be 0.953 in the experiment on RAW-Dual [1] (setting [7]) and 1.02 in the experiment on RAW-Dual [1] (setting [8]).
As to `O=C(O)/C=C\C(=O)O.O=C(c1ccc(OCCCc2c[nH]cn2)cc1)C1CC1`, the figures for the “NF-kB SEAP reporter activity” value in the experiment with RAW-Dual [1] (setting [7]) and with RAW-Dual [1] (setting [8]) were 0.636 and 0.916, respectively.
With `O=C(O)/C=C\C(=O)O.O=C(c1ccc(OCCCc2c[nH]cn2)cc1)C1CC1` (library stock concentration (final ~1000-fold dilution): 10 mM), the “NF-kB SEAP reporter activity” value in the experiment on RAW-Dual [2] (agonist: LPS (TLR4) 0.1 ug/mL) came to 1.29; in the experiment with RAW-Dual [2] (setting [4]), 0.606; in the experiment with RAW-Dual [2] (setting [5]), 0.979; in the experiment with RAW-Dual [2] (setting [6]), 1.03.
On to `COC(=O)C1=C(C#N)NC(C)=C(C(=O)OC(C)C)C1c1cccc([N+](=O)[O-])c1` (configuration not stated) (library stock concentration (final ~1000-fold dilution): 10 mM), for which the “NF-kB SEAP reporter activity” value with RAW-Dual [3] (agonist: LPS (TLR4) 0.1 ug/mL) came to 1.04; in the experiment on RAW-Dual [3] (setting [4]), 1.08; with RAW-Dual [3] (setting [5]) it was 0.657; in the experiment with RAW-Dual [3] (setting [6]), 1.03.
Take `COC(=O)C1=C(C#N)NC(C)=C(C(=O)OC(C)C)C1c1cccc([N+](=O)[O-])c1` (configuration not stated): the “NF-kB SEAP reporter activity” value with RAW-Dual [1] (setting [9]) came to 1.37; in the experiment on RAW-Dual [1] (setting [10]), 1.45.
